# Test results published in PubChem BioAssay AID588453 (National Center for Advancing Translational Sciences (NCATS), 2011).
# The whole screen tested about 390,000 compounds, of which about 4,000 (1%) were called active. Inconclusive means that the source gave no clear call. Such entries were picked first, then a sample of the others. The call rests on the fitted dose curve; in most records, active means well fitted inhibition curve with a large enough effect; inconclusive means small, poorly fitted or top-dose-only effect; inactive means no such curve, though single readings can be large or run the other way. A potency beside an inconclusive call is a rough fit, not a confirmed value. Some structures have more than one record in an assay (separate samples or runs), and their calls can disagree.
# Biological target: Thioredoxin reductase 1, cytoplasmic (Rattus norvegicus) (UniProt O89049)
# Experiment: qHTS Assay for Inhibitors of Mammalian Selenoprotein Thioredoxin Reductase 1 (TrxR1): qHTS; further: nearly all actives have a fitted effect of over 65% in size
# Conditions: recombinant rTrxR1, NADPH fluorescence consumption, selenite substrate; series mostly up to 114 µM; activity change, negative = inhibition: at the top concentration
# Summary of the method: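 Rat TrxR1 (90 nM in the dispensed reagent) was pre-reduced with 400 uM NADPH for 5 min at room temperature, then incubated with compound for 15 min. After 400 uM selenite was added, NADPH fluorescence (Ex 340/Em 450 nm) was followed for 8 min.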
# On the % scale 0 is the no-effect control and ±100 the full control effect; potency means the concentration at half of the fitted maximal effect; tags describe the fitted curve by direction and shape.
# UniProt O89049, sequence (O89049 whole entry, looked up): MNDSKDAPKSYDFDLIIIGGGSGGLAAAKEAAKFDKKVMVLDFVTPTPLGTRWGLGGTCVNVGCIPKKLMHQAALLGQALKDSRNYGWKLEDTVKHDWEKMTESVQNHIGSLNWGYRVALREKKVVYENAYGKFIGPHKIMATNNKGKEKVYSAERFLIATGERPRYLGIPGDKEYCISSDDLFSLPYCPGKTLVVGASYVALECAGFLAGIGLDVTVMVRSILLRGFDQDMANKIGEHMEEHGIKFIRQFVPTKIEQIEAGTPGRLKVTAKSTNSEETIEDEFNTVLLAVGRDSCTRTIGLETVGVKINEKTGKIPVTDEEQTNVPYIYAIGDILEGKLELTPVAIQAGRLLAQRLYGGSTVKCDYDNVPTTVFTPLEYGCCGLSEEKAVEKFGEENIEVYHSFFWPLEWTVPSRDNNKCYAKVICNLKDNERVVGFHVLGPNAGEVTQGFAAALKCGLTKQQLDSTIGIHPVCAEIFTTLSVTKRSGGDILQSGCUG
Compound,"activity change, negative = inhibition",Potency
N#CC1=C2C=Cc3ccccc3N2CCCC1=O,inactive: 9.9% [at 57.1 µM],–
CCOc1ccc(N2C(=O)CS/C2=C(\C(Cl)=C(Cl)Cl)[N+](=O)[O-])cc1,–,"inconclusive: 50.1 µM [inhibitor, partial curve]"
CC(/C=C1\SC(=S)N(CCCC(=O)Nc2ccc(C(=O)O)c(O)c2)C1=O)=C\c1ccccc1,–,"inconclusive: 79.4 µM [inhibitor, partial curve]"
Cc1ccc(C)c(Cn2c(C3CC(=O)N(c4ccccc4C)C3)nc3ccccc32)c1 (configuration not stated),inactive: -14.7%,–
CCCc1cc(=O)oc2c3c(cc(OCC(=O)NCc4ccncc4)c12)OC(C)(C)CC3,inactive: -40.2% [at 57.1 µM],–
CCN(CC)c1ccc(-c2nc(-c3ccccc3C)no2)cc1[N+](=O)[O-],inactive: 1.93%,–
Cc1ccc(NC(=S)NNC(=O)C2CC2c2ccc(C)cc2)cc1 (configuration not stated),–,"inconclusive: 14.1 µM [inhibitor, full curve, poor fit]"
Cc1sc2nc(COC(=O)CNC(=O)c3ccc(C(C)(C)C)cc3)[nH]c(=O)c2c1C,inactive: -4.67%,–
Cc1cc(SCC(=O)NC(=O)NCc2ccco2)nc2ccccc12,–,active: 70.8 µM
N=C1/C(=C\c2coc3ccc(O)cc3c2=O)C(=O)N=C2SC=CN12,–,"inconclusive: 12.6 µM [inhibitor, partial curve, poor fit]"
CCOC(=O)c1cn2cccnc2n1,–,"inconclusive: 100 µM [inhibitor, single point]"
CC1=C(c2ccc(C)cc2)S(=O)(=O)NC1=NCCCN1CCN(c2ccc(F)cc2)CC1,inactive: -1.06%,–
Cc1ccc(NC(=O)CSc2nc(-c3ccco3)cc(C(F)(F)F)n2)cc1,inactive: -5.46%,–
O=C(O)c1c2c(nc3ccccc13)/C(=C/c1ccc(O)cc1)CC2,–,"inconclusive: 14.1 µM [inhibitor, partial curve]"
O=C(c1ccc(COc2ccc(Cl)cc2)o1)N1CCN(Cc2ccc3c(c2)OCO3)CC1,–,"inconclusive: 31.6 µM [inhibitor, single point]"
CCN(CC)c1ccc(NS(=O)(=O)c2cc3[nH]c(=O)c(=O)[nH]c3cc2C)c(C)c1,–,"inconclusive: 70.8 µM [inhibitor, single point]"
Fc1cc(F)c(F)c(SCCc2ccncc2)c1F,–,"inconclusive: 28.2 µM [inhibitor, partial curve]"
O=C(NC(=S)Nc1cccc(S(=O)(=O)NC2=NCCC2)c1)c1cc(-c2ccco2)nc2ccccc12,–,active: 25.1 µM
CC(=O)N1CCc2c(sc3nc(SCC(C)C)n(-c4ccc(F)c(Cl)c4)c(=O)c23)C1,inactive: 0.229%,–
Cc1ccc(CS(=O)(=O)Cc2ccc(C(=O)NCc3ccccn3)o2)cc1,–,"inconclusive: 25.1 µM [inhibitor, full curve]"
CC(C)(C)NS(=O)(=O)c1cc(C(=O)Nc2sccc2C#N)ccc1Cl,–,"inconclusive: 44.7 µM [inhibitor, single point]"
O=C(NCC(=O)N(Cc1ccco1)C(C(=O)NC1CCCC1)c1ccncc1)c1cccs1 (configuration not stated),–,"inconclusive: 3.16 µM [inhibitor, single point]"
C=C1C=C(C(F)(F)F)n2ncc(C(=O)NCc3ccc(F)cc3)c2N1,inactive: 6.81%,–
O=c1cc(-c2ccccc2)n2c(SCc3ccc(F)cc3)nnc2[nH]1,inactive: 5.94% [at 57.1 µM],–

Compound,"activity change, negative = inhibition",Potency
CN(CC(=O)N1CCN(Cc2ccccc2)CC1)C(=O)Cc1cccc2ccccc12,–,"inconclusive: 79.4 µM [inhibitor, partial curve]"
CN(CCc1ccccc1)C(=O)c1cccc(NC(=O)Cc2cccc(NC(=O)C3CCN(C(=O)C4CCCC4)CC3)c2)c1,–,"inconclusive: 89.1 µM [inhibitor, single point]"
CC1(C)CCC2=C(O1)c1ccccc1C(=O)C2=O,–,active: 25.1 µM
BrC(/C=C\c1ccccc1)=N/Nc1nc(N2CCOCC2)nc(N2CCOCC2)n1,–,"inconclusive: 50.1 µM [inhibitor, partial curve, poor fit]"
Cc1ccccc1C(=O)Nc1cccc(NC(=O)c2ccc(-c3ccc(Br)cc3)o2)c1,inactive: -17.9%,–
CCOc1ccc(NC(=O)C2CCN(c3nnc(-n4c(C)ccc4C)s3)CC2)cc1,inactive: -24.5%,–
COc1cc2c(NC3CCN(C)CC3)nc(N3CCCN(C)CC3)nc2cc1OCCCCCC(N)=O,–,"inconclusive: 79.4 µM [inhibitor, single point]"
Cc1nc(-c2cccnc2)sc1CCNS(=O)(=O)c1ccc(F)cc1,inactive: 21.4% [at 57.1 µM],–
COCCNC(=O)c1cccc(-n2c(C)nc3cccnc32)c1,inactive: 7.42%,–
O=CC1=C(N2CCOCC2)/C(=C/c2ccc(Cl)cc2)CC1,–,"inconclusive: 11.2 µM [inhibitor, partial curve, poor fit]"
Cc1ccc(C(=O)OC2=CC(=O)CC(C)(C)C2)cc1,–,"inconclusive: 28.2 µM [inhibitor, single point]"
O=C(Nc1nc2cc3c(cc2s1)OCCO3)c1ccco1,inactive: 16.8% [at 57.1 µM],–
COc1ccc(-n2nnnc2S(=O)(=O)CC(=O)N2CCCCC2)cc1,–,active: 2.24 µM
CN(C)[C@@H]1C(=O)C(C(N)=O)=C(O)[C@@]2(O)C(=O)C3=C(O)c4c(O)ccc(Cl)c4[C@@H](O)[C@H]3C[C@@H]12,–,"inconclusive: 13.4 µM [inhibitor, partial curve]"
Cc1cc2oc(C(=O)Nc3nonc3C)c(C)c2cc1Cl,–,"inconclusive: 70.8 µM [inhibitor, single point]"
NC(=O)c1ccsc1NC(=O)c1ccc2c(c1)CCCC2,–,"inconclusive: 89.1 µM [inhibitor, single point]"
COc1ccc(C(=O)N2CCN(C(=O)C3COc4ccccc4O3)CC2)cc1OC (configuration not stated),–,"inconclusive: 70.8 µM [inhibitor, partial curve]"
CCc1ccccc1Nc1cc(C(=O)NC(C)c2ccccc2)c2ccccc2n1 (configuration not stated),inactive: 14.4%,–
Clc1ccc(-n2nnnc2Sc2ncnc3sccc23)cc1,–,"inconclusive: 35.5 µM [inhibitor, partial curve, poor fit]"
COc1ccc(/C=C2\N=C3CCCN3C2=O)cc1,–,"inconclusive: 89.1 µM [inhibitor, single point]"
CC(C)(C)C(=O)NC(=S)NNC(=O)c1ccncc1,–,"inconclusive: 20 µM [inhibitor, single point]"
Cc1ccc2cc(C#N)c(NCc3ccco3)nc2c1,–,"inconclusive: 25.1 µM [inhibitor, partial curve, poor fit]"
Cc1ccc(C)n1-c1nnc(N2CCCC(C(=O)NCc3cccc(Cl)c3)C2)s1 (configuration not stated),–,"inconclusive: 50.1 µM [inhibitor, partial curve]"
Cn1nc([N+](=O)[O-])nc1Sc1ccc(C(C)(C)C)cc1,–,"inconclusive: 44.7 µM [inhibitor, partial curve, poor fit]"

Compound,"activity change, negative = inhibition",Potency
CCOCC(=O)N1CCN(c2ccc([N+](=O)[O-])cc2)CC1,–,"inconclusive: 89.1 µM [inhibitor, single point]"
Cn1ccsc1=NC(=O)c1ccc(Cl)cc1,inactive: 15.7% [at 57.1 µM],–
COc1cc(OC)c(NC(=O)Cn2c(=O)oc3cc(S(=O)(=O)N4CCCC4)ccc32)cc1Cl,inactive: 27.3% [at 57.1 µM],–
CCOc1ccccc1CN1CCNC(=O)C1CC(=O)N(C)CCc1cnn(C)c1 (configuration not stated),–,"inconclusive: 89.1 µM [inhibitor, single point]"
OCCc1ccc(-c2ccc(Cl)cc2)o1,–,"inconclusive: 14.1 µM [inhibitor, partial curve]"
C(=C\c1ccco1)/C1=NN(c2ccccc2)C(c2ccco2)C1 (configuration not stated),–,"inconclusive: 12.6 µM [inhibitor, partial curve, poor fit]"
Cc1cc(NC(=O)CSCC(=O)Nc2nc3ccccc3s2)no1,inactive: -15.5%,–
Cc1ccc(CS(=O)Cc2ccc(C(=O)NC3CCCCC3)o2)cc1 (configuration not stated),–,"inconclusive: 15.8 µM [inhibitor, partial curve, poor fit]"
COc1ccc(-c2sc(NC(=O)c3ccc(C)cc3)nc2-c2ccc([N+](=O)[O-])cc2)cc1,inactive: 11% [at 57.1 µM],–
CC(C)NC(=O)c1cc(-c2ccco2)on1,–,"inconclusive: 50.1 µM [inhibitor, partial curve]"
CS(=O)(=O)N1CCN(c2ccccc2NC(=S)NC(=O)c2cccs2)CC1,inactive: 18.4% [at 57.1 µM],–
COC(=O)/C(=C/c1cccnc1)NC(=O)c1ccccc1,inactive: -14.3%,–
O=C1/C(=C/C=C/c2ccco2)SC(=S)N1c1ccc(O)cc1,–,active: 35.5 µM
COc1cc2c(cc1OC)-c1c(OC)c(OC)cc3ccnc(c13)C2=O,inactive: -0.846%,–
CSc1cccc(NC(=O)c2ccc(CN3CCc4ccccc4C3)cc2)c1,inactive: 20.2%,–
Brc1cccc[n+]1CCCCCC[n+]1ccccc1Br,–,"inconclusive: 0.708 µM [inhibitor, full curve, poor fit]"
CC1=NN(C(=O)c2ccncc2)C(=O)C1N=Nc1ccc2ccccc2c1 (configuration not stated),inactive: 6.76% [at 11.4 µM],–
COc1cccc(C2CC(=O)N3CN(c4cccc(Cl)c4C)CSC3=C2C#N)c1OC (configuration not stated),–,"inconclusive: 14.1 µM [inhibitor, partial curve]"
O=C(/C=C/N1CCOCC1)c1ccc(-c2ccccc2)cc1,–,"inconclusive: 14.1 µM [inhibitor, partial curve]"
CC1=C(C)C(c2ccccc2)NC(=S)N1 (configuration not stated),–,"inconclusive: 10 µM [inhibitor, partial curve]"
CCOc1ccc(/C=N/Nc2ccc(Cl)nn2)c(O)c1,inactive: 5.11% [at 57.1 µM],–
Cc1ccc(SC(=O)c2c([N+](=O)[O-])c(C)nn2C)cc1,–,"inconclusive: 35.5 µM [inhibitor, single point]"
CCc1ccc(NC(=O)CCS(=O)(=O)c2cccc3nsnc23)cc1,–,"inconclusive: 28.2 µM [inhibitor, partial curve, poor fit]"
COc1ccccc1/C=C/C(=O)OCC(=O)NCc1ccco1,–,"inconclusive: 89.1 µM [inhibitor, single point]"
